# Source: the supplement of paper PMC3334620
# In all, about 33,000 sequences were measured (“E-score (-0.5 to 0.5)”: median about -0.054, highest 2% from about 0.39 on). This is one part of the list.
# Biological target: Ylr278c (UniProt Q05854)
# Assay: PBM E-score (8-mer binding enrichment) (E-score (-0.5 to 0.5)); higher = stronger / more preferred TF binding; most listed sequences are background and not binding sites
# Settings: protein concentration: 200 nM; construct: GST-DNA-binding domain
# Summary of the method: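 Using PURExpress in vitro transcription/translation, GST-tagged yeast transcription factors were made in full-length or DNA-binding-domain form. These were applied at about 100-200 nM to double-stranded universal all-10-mer Agilent arrays, and bound protein was detected with fluorescent anti-GST. Scans were normalised with masliner before the Universal PBM Analysis Suite assigned E-scores to ungapped eight-base words pooled with their reverse complements.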
row,Sequence,PBM E-score
1,GATTATAC,0.162
2,AAGCCAGG,-0.173
3,ATCCCCGC,0.393
4,CTACTCGC,-0.0793
5,CCGACCAG,0.213
6,TGCTGCAA,-0.175
7,ATAGGTGA,-0.101
8,CAGAGCAA,-0.0987
9,CCGGAACC,0.402
10,CATGACTC,-0.173
11,CTGGTGCA,-0.237
12,TGGCGGAA,0.295
13,TCCCCCAA,-0.252
14,ACCGGAAA,0.369
15,GGATTTAA,0.216
16,CTGTGATC,-0.0143
17,AAATCTAT,-0.0238
18,GCCCATAC,-0.275
19,GACTGTCA,-0.0692
20,CAAGGGAA,-0.215
21,CTTTAATC,-0.0149
22,CAGAAGTC,-0.136

row,Sequence,PBM E-score
1,TATAGCAA,-0.15
2,ACCGCGCC,0.125
3,AGTGAACC,-0.135
4,CACGAAAG,-0.0924
5,GTCTTAAA,-0.137
6,CATACGTC,-0.0276
7,ATAATCTA,0.0377
8,GGCGTCCC,0.0884
9,CGCCCTAA,-0.0151
10,CAGCCAGC,-0.191
11,ATAAGACC,0.0726
12,CGCCGGAA,0.432
13,AACCTTGA,-0.0432
14,ACCGGCCT,0.179
15,CTGTCCCC,-0.127
16,GACACCAA,-0.0658
17,AATACGGA,0.37
18,GGCGCCTA,-0.115
19,CTTTGTTC,0.163
20,AACGAGAG,-0.0657
21,TAGAGCTA,-0.281
22,AGATTAAT,0.0681

row,Sequence,PBM E-score
1,CCCACGGA,0.359
2,AAGGGTGT,0.0144
3,ATGGTACG,0.0066
4,GGTCTCAC,-0.133
5,AATTCGTG,-0.135
6,ATGCACAC,-0.153
7,CATGATAG,-0.277
8,CAAAGCGA,-0.0272
9,CCTTGCTC,0.0082
10,CGAACTTC,-0.158
11,CTAAGCGC,0.0111
12,CAGCCTGC,-0.159
13,AAGGACGG,0.054
14,ACAAGCAA,-0.164
15,CCGTTCCG,0.402
16,CGATGTAC,0.0176
17,ACCCCAGA,-0.168
18,AGCTGCCG,0.137
19,AGACCCAG,-0.263
20,GTCTACAA,-0.282
21,ACCCGCCA,-0.068
22,CTCGGACC,0.365

row,Sequence,PBM E-score
1,GAATAATC,0.0213
2,CAGATTAA,0.0707
3,AACCGTAA,0.0944
4,GTCTGAAA,-0.123
5,GTTTCATA,-0.0158
6,CGCAACGA,0.0472
7,ATTTCAGA,-0.127
8,AACTTCGG,0.302
9,TTCGGCAA,0.211
10,CAGATGCG,-0.144
11,CTCAAAAA,-0.113
12,AAACTAGG,0.00324
13,CGTTCCAA,-0.0135
14,TAAGAAAA,-0.0396
15,GTTGAACA,-0.22
16,GGTCCCCA,0.0138
17,AGCCCTCA,-0.107
18,GCCCGTAC,0.0569
19,CCACAAAC,0.0849
20,GGTCTGCA,0.0432
21,ACGCTCAT,-0.173
22,CGCTACGC,0.00348

row,Sequence,PBM E-score
1,AAAGGGAC,-0.268
2,ATTTCGGG,0.235
3,ACTCGACA,0.0965
4,CTTTATAA,-0.106
5,ACTGGTAT,-0.222
6,ACCGGGTC,0.134
7,CTACGATC,-0.205
8,CGGCGTAG,0.196
9,ACATTTAC,-0.135
10,ACAATTGC,-0.0317
11,ATTCAGAC,-0.275
12,CCTAGTGA,-0.0501
13,CTAAAGGC,-0.265
14,CGTTTTTA,-0.0693
15,GGGCATAC,-0.0274
16,CTCTGTCA,-0.21
17,CTGTCCAA,-0.217
18,GGTCTGAC,-0.0242
19,CTTACTTC,0.00609
20,CGAAAGTA,0.00237
21,GGGCGCCA,0.0802
22,CCACCCTA,-0.0146
